# Reference: ChEMBL document CHEMBL4888484, “Replenishing the malaria drug discovery pipeline: Screening and hit evaluation of the MMV Hit Generation Library 1 (HGL1) against asexual blood stage Plasmodium falciparum ,using a nano luciferase reporter read-out” (2022)
# Hit rate of the full screen: of about 150,000 compounds, about 540 (0.36%) showed an effect of 50% or more. Some of the results follow.
# Test system: Plasmodium falciparum
# Test: Primary screen in NF54 nanoGlo assay, in single point, at 2uM, 72h; a lower Z score goes with more inhibition
# Assay type: functional, Erythrocyte
# Conditions: timepoint 72 hour
Compound,% Inhibition,Z score
Cc1ccc(C(=O)C(=O)N(Cc2ccco2)[C@H]2CCS(=O)(=O)C2)cc1,2%,-0.34
CCOc1ncccc1NC(=O)c1cccc(C)n1,-13%,2
O=C(N[C@H]1CCCc2ccccc21)c1cncn1-c1ccc(-c2cc(C(F)(F)F)cc(C(F)(F)F)c2)cc1,-6%,0.69
CC(=O)Nc1ccc(OCC(=O)N(C)CCCc2c(C)nn(C)c2C)nc1,-13%,2.19
CCOc1ccc(C2=Nc3ccc4ccccc4c3NC(c3ccc(OC)cc3)=N2)cc1OCC,-6%,0.71
CC(C)(C)C[C@H]1CCN(C(=O)CS(=O)(=O)C2CC2)C1,-16%,2.53
COC[C@H]1CN(c2nc(OC)ncc2Cl)CC(C)(C)O1,-2%,0.37
Cc1nn(C)c(C)c1C1OCCC1CNC(C)c1ccccc1Cl (stereo not given),-9%,0.82
O=S(=O)(CCc1ccccc1)N1CCC(N2CCC(Oc3ccccc3F)CC2)CC1,-8%,1.58
CN(Cc1ccccc1)[C@H]1CCOC2(CCN(C(=O)c3ccccn3)CC2)C1,-14%,1.8
COCC(=O)NC1CCN(Cc2nc(-c3ccco3)no2)CC1,-5%,1
Cc1[nH]ncc1C(=O)N(C)c1ccc2c(c1)CCO2,-6%,0.84
Cc1ccc(C)c(S(=O)(=O)N2CCC3(CC2)NCCN=C3NCc2ccc(C(F)(F)F)cc2)c1,1%,-0.1
O=C(NCC1(c2ccncc2)CC1)[C@@H]1CCCN1CC(F)(F)F,-4%,0.61
COC(=O)c1ccccc1S(=O)(=O)NCC#N,-8%,1.05
O=C(Nc1cncc(F)c1)NC1CCOCC1,-8%,1.46
COc1cccc(-c2nc3c([nH]2)CCN(C(=O)CNC(C)=O)C3)c1,-11%,1
CN1CCN(C(=O)[C@@H]2CCC[C@@H](NCc3cccc4c3OCO4)CN(C)C(=O)C2)CC1,-7%,1.15
CC1CN(S(=O)(=O)c2cc3c(cc2Cl)NC(=O)C3)CC(C)O1 (stereo not given),-18%,1.58
Cc1nn(C)c(C)c1CN(C)[C@@H]1CCCC[C@@H]1O,-21%,1.97
O=C1NC2(CCN(C(=O)NC3CCCCC3)CC2)Nc2c(Cl)cccc21,5%,-0.68
Cc1ccccc1C(CN1CCOCC1)N[C@@H]1C=C[C@H](CO)C1 (stereo not given in full),-6%,0.86
Cc1cc(CNCc2c(C(=O)N3CCCCCCC3)nc3ccc(Cl)cn23)nn1C,-10%,1.91
Cc1cccc(-c2cnc(NC(=O)CN3CCC(CO)CC3)s2)c1,-16%,2.69
CN(C(=O)c1ccc(Br)cc1Cl)c1cccnc1,-8%,1.28
CCn1cc(S(=O)(=O)N2CC[C@@H]3C(=O)NCCCCCCN(Cc4ccncc4)[C@@H]3C2)cn1,0%,0.02
COc1ccc(Oc2c(N3CCOCC3)cnn(-c3ccc(C)cc3)c2=O)cc1,20%,-2.88
CCC(CC)C(=O)Nc1ccc(F)c(Cl)c1,-7%,1.31

Compound,% Inhibition,Z score
CC(C)CC(=O)N1CC2(C[C@H](CC(=O)N3CCOCC3)CO2)C1,2%,-0.36
Cc1cc(C)n2c(Nc3c(C)cccc3C)c(C3CCCCC3)nc2c1,-7%,1.13
O=C(NC1CCN(c2ccccc2C(=O)N2CCN(C3CCCCCC3)CC2)CC1)C1CCC1,-10%,1
CCn1nncc1CNC(=O)[C@@H]1NCCOc2ccccc21,-16%,2.98
O=C(C1=CCCC1)N(c1cccc(O)c1)S(=O)(=O)c1ccccc1,-13%,1.19
CC[C@H](NC(=O)c1cnc(O)cn1)c1cc(C)ccn1,-2%,0.31
NC(=O)Cc1nc([C@H]2CC(=O)N(C3CCCC3)C2)n(CC(F)(F)F)n1,-14%,2.04
CC[C@H](NC(=O)Nc1ccc(N2CCCC2)c(C)c1)c1nccs1,-17%,2.69
O=S(=O)(NC(C1CC1)C1CC1)c1ccc(Br)cc1Cl,4%,-0.86
CCOC(=O)Cc1csc(NC(=O)C(=O)OCC)n1,7%,-0.98
CC[C@H]1C[C@@H](NC(=O)c2ccccc2)C[C@@H](c2ccccc2OCC(N)=O)O1,-18%,2.6
Cc1nc(CN(C)C(=O)NC(C)(C)CN2CCCCCC2)no1,-6%,0.68
CCOCCC(=O)Nc1nnc(C(C)C)s1,4%,-0.71
Cc1ccc2nc3c(cc2c1)CCN3C(=O)COc1ccc(Cl)cc1,-2%,0.22
Cc1nc(CNC[C@H](C)c2c(C)noc2C)sc1C,6%,-0.63
CC(CN1CCN(C)CC1)NC(=O)NC1CC1C (stereo not given),1%,-0.14
COc1ccc(C(C)NC(C)c2nnnn2C)cc1 (stereo not given),-3%,0.3
CON(C)C(=O)CCN1CCCN(Cc2ccccc2)CCOCC1,-3%,0.51
COc1ccc(-c2ncc(F)c(N(C)C)n2)cc1C,1%,-0.19
CN(C)c1ccccc1NC(=O)c1ccco1,-11%,1.56
CC[C@@H]1NC(=O)N(Cc2cccnc2C(F)(F)F)C1=O,-15%,2.28
Cc1c(F)ccc(Cl)c1NC(=O)[C@H]1OCC[C@H]1C,-23%,2.37
O=C1CCC(Cn2cc(Cl)c(=O)[nH]c2=O)CC1,0%,0.05
CCN(Cc1ccc(OC(F)F)cc1)C[C@H]1CCCCO1,-14%,1.76
COC(=O)c1ccccc1NC(=O)CCc1nc(CS(=O)(=O)c2ccc(C)cc2)no1,-2%,0.3
CC(C)C(=O)N1CCCN(c2nc(CN3CCN(c4ccccc4F)CC3)cc(=O)[nH]2)CC1,1%,-0.19
Cc1cccc(NC(=O)N2CC3C=CC2C3)c1 (stereo not given),-5%,0.62
